Reference: ChEMBL document CHEMBL4888484, “Replenishing the malaria drug discovery pipeline: Screening and hit evaluation of the MMV Hit Generation Library 1 (HGL1) against asexual blood stage Plasmodium falciparum ,using a nano luciferase reporter read-out” (2022)
About 420 (8.8%) of roughly 4,800 compounds showed an effect of 50% or more. Some of the results follow.

Each compound was assayed on Plasmodium falciparum (assay: Confirmatory screen in NF54 nanoGlo assay, in single point, at 2uM, 72h). Conditions: timepoint 72 hour.
Type: functional, Erythrocyte

SMILES | % Inhibition
Clc1ccc(C2CC(c3cccnc3)Nc3ncnn32)cc1 (stereo unspecified) | -9%
Cc1ccc(C(O)(c2ccc(C)c(C)c2)[C@H]2C[N@]3CC[C@@H]2CC3)cc1C | 6%
COc1ccc(-c2csc(-n3cc(C4=CCN(CCO)CC4)cn3)n2)cc1 | 30%
Cc1ccc(C2CC(c3cccnc3)Nc3ncnn32)cc1 (stereo unspecified) | -4%
C=CC1CN2CCC1CC2C12Nc3ccccc3C1(O)CCO2 (stereo unspecified) | -11%
CCN(CC)C(=O)Oc1cc2nnnn2nc1-c1ccccc1 | 3%
CCC(CC)c1cc([C@H]2CN3CC[C@H]2C[C@@H]3CO)nc(-c2ccncc2)n1 | 26%
CCc1nsc(N2CCC3CCC(C2)N3C)n1 (stereo unspecified) | -12%
CCn1cnc2c(N3C4CCC3C(C(=O)OC(C)(C)C)C4)ncnc21 (stereo unspecified) | -4%
CCN(CC)CCC1C(=O)N(c2ccccc2)C(=O)N(c2ccccc2)C1=O | 4%
O=C(c1ccccc1)c1cc(Cl)ccc1NC(=O)[C@H]1CC(=O)N(c2ccc(F)cc2)C1 | 85%
CCOc1ccccc1NC(=O)c1cn(Cc2ccc(N)cc2)cn1 | 5%
COCCn1ccc(C(=O)N[C@H]2CCc3nc(C(C)C)nn3C2)n1 | -4%
O=C1CO[C@H]2CCN(Cc3cn4ccc(Br)cc4n3)C[C@@H]2N1 | 1%
CN(C)C(=O)Oc1cccc2ccc(CN3CCC(N4CCN(c5ccc(C(F)(F)F)cn5)CC4)CC3)nc12 | 15%
CC(C)(C)NC(=O)C1CC2CCCCC2CN1 (stereo unspecified) | 5%
Cc1c(C(=O)N2CCC3(CC2)OCCO3)oc2ccc3c(c12)[C@@H](O)CC1(CCCCC1)O3 | 4%
CCC(CC)c1cc([C@H]2CN3CC[C@H]2C[C@@H]3CNS(=O)(=O)Cc2ccccc2)nc(-c2ccncc2)n1 | 63%
C[C@@H](Cc1ccc(O)cc1)NCc1cc[nH]n1 | 3%
CCN1CCC[C@H](NC(C2CCC2)C2CCC2)C1 | -3%
CN1CCC2(CC1)CNc1ccccc12 | -5%
COC(=O)c1cc(OC)cc2[nH]c(=O)oc12 | -13%
C[C@@H]1N=C(c2ccccc2)c2cc(Cl)ccc2N(CC(=O)Nc2cccc(C(F)(F)F)c2)C1=O | 4%
O=c1[nH]c2cc(NS(=O)(=O)c3ccc(C4CCCCC4)cc3)ccc2o1 | -17%

SMILES | % Inhibition
O=C(NCc1ccc(Br)cn1)[C@H]1NCC12CCCC2 | 7%
COc1cc(OCC(=O)N2CCN([C@@H](C)Cc3ccccc3)CC2)cc(OC)c1OC | 8%
O=C1N(c2ccccc2)C(=O)C2(Cc3cc(C(F)(F)F)ccc3N3CCC(c4ccccc4)CC32)C(=O)N1c1ccccc1 (stereo unspecified) | 4%
CCCC(=O)N(C1=CC2CCC(C1)N2C)c1ccccc1 (stereo unspecified) | 1%
COC(=O)C(O)(c1ccc2c(c1)C(O)(C(F)(F)F)C(=O)N2C(C)C)C(F)(F)F (stereo unspecified) | 8%
COC(=O)CNc1cc(C)c([C@@](O)(C(=O)OC)C(F)(F)F)cc1OC | 8%
CN(C)[C@@H](Cn1c(=O)[nH]c2ccccc2c1=O)c1ccco1 | -7%
C[N+]12CCC(CC1)[C@@H](C(O)(c1cccc(Cl)c1)c1cccc(Cl)c1)C2 | 24%
Cn1cc(Br)cc1C(=O)C(Cl)(Cl)Cl | -16%
O=c1c2cc(Cl)ccc2nc(-c2cccnc2)n1-c1ccc(Br)cc1 | 0%
c1ccc2c(CCNC3(c4nnnn4C4CCCCC4)CCCCC3)c[nH]c2c1 | -4%
O=C1NC(=O)C2(Cc3cc(C(F)(F)F)ccc3N3CCCCC32)C(=O)N1c1ccccc1 (stereo unspecified) | -15%
Nc1ccc(N2CCN3CCC[C@H]3C2)cc1 | 8%
CCn1nccc1CNCCc1ccccc1 | 4%
Cc1ccc2c(c1)CCCN2C(=O)CN1CC=C(c2cnn(C)c2)CC1 | 43%
Cc1nn(C)cc1/C=C1\CC2C3CCC4CC(O)CCC4(C)C3CCC2(C)C1O (stereo unspecified) | -2%
CCC(CC)c1cc([C@H]2CN3CC[C@H]2C[C@@H]3CNC(=O)Cc2cccs2)nc(-c2ccncc2)n1 | 3%
CC(=O)N1N=C(c2cccnc2)O[C@H]1c1ccc(F)cc1 | -10%
CNc1snc(C)c1C(=O)N1CCC(C(=O)OC)(c2ccccc2)CC1 | -2%
O=S(=O)(NC12CCCC1CNC2)c1onc(C2CC2)c1Cl (stereo unspecified) | 95%
O=C(Cc1cnc2ccccn12)N1C[C@H]2CC[C@@H](C1)N(Cc1ccccn1)C2 | 20%
CC[C@H](O)c1c[nH]c(C(=O)C(Cl)(Cl)Cl)c1 | -12%
FC1(F)C[C@@H](COc2cccnc2)N(C2CCCCC2)C1 | 3%
CN1CCc2nc3ccc(F)cc3c(C(N)=O)c2C1 | -10%

SMILES | % Inhibition
O=C1CCN(C(=O)c2ccc(F)c(Cl)c2)CC1 | 8%
CC(C)c1nc(CC(=O)N2CCN(Cc3nnc4n3CCCCC4)CC2)cs1 | -12%
CN1CC[C@]2(CCN(c3ccnc4ccsc34)C2)C1 | 99%
CC(C)N1C(=O)NC(=O)C2(Cc3ccccc3N3CCN(Cc4ccccc4)CC32)C1=O (stereo unspecified) | 38%
CN1CCC(N(C)C2CCCCC2N(C)C(=O)Cc2ccc(O)cc2)CC1 (stereo unspecified) | -1%
Cn1nc(OC(=O)Nc2ccccc2)cc1C(F)(F)F | 6%
CC1CNCC(C)N1Cc1csc(C2CC2)n1 (stereo unspecified) | -8%
O=C(NC[C@H]1C[C@@H]2CC[N@]1C[C@@H]2CN1CCC(Cc2ccccc2)CC1)Nc1ccccc1 | 17%
Clc1ccc(C2CC(c3cccnc3)Nc3nnnn32)cc1 (stereo unspecified) | -10%
CCOc1ccccc1N1C(=O)NC(=O)[C@@]2(Cc3cc(C)ccc3N(C)C2)C1=O | -10%
CN1CC2(CN(Cc3cnc4ccc(Cl)cn34)C2)OC1=O | -4%
O[C@@]1(Cc2ccccc2)CN2CCC1CC2 | 7%
C=CCN(C)C[C@H]1CN2CC[C@H]1C[C@@H]2CNC(=O)Nc1ccc(OC(F)(F)F)cc1 | 27%
Cc1ccc(CN2CC(=O)N(C)CC23CCCCC3)nc1 | -9%
CCC1(CC)C(=O)N(CN2CCCC2=O)C(=O)N(CN2CCCC2=O)C1=O | -17%
C=CCCC(CN1C[C@H]2CC=CC[C@H]2C1)Oc1ncc(F)cn1 (stereo partly specified) | 77%
O=C1C2CCN(CC2)[C@H]1Cc1ccc(Cl)cc1 | 4%
COC(=O)COc1ccc(C#N)c(Cl)c1 | -5%
CC(=O)N(C1CCN(Cc2ccccc2)CC1)C1(C(=O)Nc2ccc3[nH]ccc3c2)CCN(C)CC1 | 35%
COc1ccc(CCN2C(=O)NC(=O)[C@@]3(Cc4c(ccc5ccccc45)N(C)C3)C2=O)cc1OC | -2%
O=C1NC(=O)C2(Cc3cccc(F)c3N3CCC(c4ccccc4)CC32)C(=O)N1c1ccccc1 (stereo unspecified) | -4%
Cc1ccc(Cl)c(NC(=O)N2CCC[C@H](c3n[nH]c(=O)o3)C2)c1 | 1%
CC(C)N1CCN(c2nc3nc[nH]c(=O)c3s2)CC1 | 4%
CN(C)c1ccccc1NS(=O)(=O)c1c(Br)cc2[nH]c(=O)oc2c1Cl | -7%

SMILES | % Inhibition
c1cc(-n2cnnn2)ccc1N[C@H]1CN2CCC1CC2 | -14%
O=C(N1CCN(C(c2ccccc2)c2ccccc2)CC1)C(O)(c1ccccc1)c1ccccc1 | -4%
c1cc(N2CC[C@@]3(CCCNC3)C2)c2sccc2n1 | 99%
COc1ccc(N2C[C@H]2c2ccncc2)cc1 | -3%
O=C1CCN(C(=O)c2ccc(Cl)c(Cl)c2)CC1 | -2%
CN(C)C(=O)CCCn1ccc(NC(=O)C2C(C)(C)C2(C)C)n1 | -18%
O=C(Cc1noc2ccccc12)N1CC2CCCC(C1)N2 | 10%
CCCC(=O)N(C(=O)CCC)c1ccc2[nH]c(=O)oc2c1 | -8%
Cc1nc(Cn2nc(C(C)(C)C)oc2=O)oc1C | 0%
CC1CN2CCCC2CN1C(=O)c1cc(C2CC2)on1 (stereo unspecified) | -17%
CN1CC2CN(Cc3ccccc3)CC(C1)C2=O | -15%
O=C(NC1CCCCC1)N1C[C@@H]2C[C@H](C1)c1c(-c3ccccc3F)ccc(=O)n1C2 | -4%
CN1CCC2CCN(C(=O)c3cc(C4CC4)on3)C2C1 (stereo unspecified) | 2%
CC(C)(C)CC(C)(C)NCc1cccnc1 | -7%
Cc1cc(C(=O)NC2CC(C)n3ccnc32)nn1C(C)C (stereo unspecified) | 58%
CNCCc1cc(OC)c(OC)c2c1ccc1cc(OC)c(OC)cc12 | 8%
CC1CCCCC1N1CCN(C(=O)COc2ccc(Br)cc2)CC1 (stereo unspecified) | 3%
Cc1cc(C(F)(F)F)c2c(C(N)=O)cn(C(C)(C)C)c2n1 | 2%
COc1ccc(-c2cc([C@H]3CN4CC[C@H]3C[C@@H]4CNC(=O)C3CCCCC3)n(C)n2)cc1OC | -9%
Cc1cc(=O)c(OCC(=O)N2CCN([C@@H](c3ccccc3)c3ccc(Cl)cc3)CC2)c[nH]1 | 63%
CC(CCc1ccccc1)N1C(=O)NC(=O)C2(Cc3c(ccc4ccccc34)N(C)C2)C1=O (stereo unspecified) | -8%
CCN1C[C@]2(COC)CC[C@H](OC)[C@@]34C5C[C@@H]6[C@@H](OC)C[C@@](O)(C5[C@H]6OC(=O)c5ccccc5)[C@@H](CC23)C14 (stereo partly specified) | 1%
COc1cnc(C(F)(F)F)nc1N1CCNCC1 | -2%
Cc1ccccc1[C@H](C)NC1=NCCO1 | 5%
